# Measurements published in PMC4336329 (PLoS ONE, 2015).
# Among all 310,000 compounds or so, about 2,200 (0.71%) showed an effect of 50% or more. Effects have a minus sign here. Some of the results follow.
# Biological target: human ether-à-go-go-related gene (hERG) potassium channel (human, UniProt Q12809)
# Experiment: primary screen, population patch clamp on CHO cells stably expressing hERG
# Sequence of human ether-à-go-go-related gene (hERG) potassium channel (Q12809 whole entry, looked up): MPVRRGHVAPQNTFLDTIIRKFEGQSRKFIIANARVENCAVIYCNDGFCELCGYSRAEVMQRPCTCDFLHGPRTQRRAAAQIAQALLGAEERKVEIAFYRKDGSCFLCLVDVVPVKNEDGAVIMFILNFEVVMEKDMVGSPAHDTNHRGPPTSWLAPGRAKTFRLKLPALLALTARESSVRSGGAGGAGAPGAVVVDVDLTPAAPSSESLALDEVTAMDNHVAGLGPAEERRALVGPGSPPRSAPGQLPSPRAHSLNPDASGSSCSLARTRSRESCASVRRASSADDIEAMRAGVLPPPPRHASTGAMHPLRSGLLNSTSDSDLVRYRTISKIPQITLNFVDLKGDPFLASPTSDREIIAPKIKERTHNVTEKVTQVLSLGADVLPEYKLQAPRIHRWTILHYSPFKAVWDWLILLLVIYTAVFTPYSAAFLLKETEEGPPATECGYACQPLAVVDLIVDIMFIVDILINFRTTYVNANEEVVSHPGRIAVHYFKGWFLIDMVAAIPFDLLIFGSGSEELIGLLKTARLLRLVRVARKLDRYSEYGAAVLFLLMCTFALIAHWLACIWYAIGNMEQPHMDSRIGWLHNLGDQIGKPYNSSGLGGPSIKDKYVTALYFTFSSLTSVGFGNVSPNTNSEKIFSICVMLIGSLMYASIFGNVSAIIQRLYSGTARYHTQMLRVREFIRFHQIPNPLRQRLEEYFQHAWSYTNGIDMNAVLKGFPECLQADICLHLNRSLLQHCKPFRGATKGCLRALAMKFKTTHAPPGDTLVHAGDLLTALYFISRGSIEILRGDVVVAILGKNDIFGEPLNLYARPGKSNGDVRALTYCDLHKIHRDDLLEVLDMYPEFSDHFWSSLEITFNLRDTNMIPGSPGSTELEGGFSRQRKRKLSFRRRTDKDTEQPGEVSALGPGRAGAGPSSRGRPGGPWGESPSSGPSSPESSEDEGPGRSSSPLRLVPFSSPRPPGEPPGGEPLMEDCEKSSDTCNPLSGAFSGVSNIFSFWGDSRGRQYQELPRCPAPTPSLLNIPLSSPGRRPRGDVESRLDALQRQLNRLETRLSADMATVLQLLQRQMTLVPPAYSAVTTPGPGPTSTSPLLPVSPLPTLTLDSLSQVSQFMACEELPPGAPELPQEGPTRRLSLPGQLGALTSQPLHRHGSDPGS
row,SMILES,"hERG current change (%, negative = inhibition) at 1uM [%]"
1,COc1ccc(C2=Nn3c(nnc3-c3cc(C)[nH]n3)SC2)cc1,-35.1
2,CCCn1cc(CN2CCC(Oc3ccc(C(=O)N4CCCC4)cc3)CC2)c(C)n1,14.3
3,Cc1cc(C)cc(NC(=O)Nc2ccc(S(=O)(=O)Nc3cc(C)on3)cc2)c1,4.23
4,CC(C)C(OC(=O)c1ccccc1)c1nccc2ccccc12 (stereo not shown),6.89
5,COCCOC(=O)C(C#N)c1nc2ccccc2nc1N1CCN(Cc2ccccc2)CC1 (stereo not shown),-32.7
6,O=C(/C=C/c1ccccc1)N1CCOCC1,11.3
7,CCOc1ccc2nc(SCc3ccc(C(=O)OC)o3)[nH]c2c1,6.62
8,Cc1ccc(C2C(C#N)=C(N)Oc3c2c(=O)n(C)c(=O)n3C)cc1 (stereo not shown),6.36
9,CCOC(=O)C(NC(=O)Nc1ccc(F)cc1F)(Oc1ccc(F)cc1)C(F)(F)F (stereo not shown),3.91
10,O=C1C=C(c2ccc(C(=O)O)cc2)C[C@@H](c2ccc(Cl)cc2)C1,9.26
11,CCCc1nnc(NC(=O)CC(=O)Nc2ccccc2C(=O)O)s1,15.3
12,CC(=O)Nc1ccc(OCCOc2ccc([N+](=O)[O-])cc2)cc1,12.4
13,Cc1ccc(C(=O)NCCCN2CCOCC2)cc1Cl,15.6
14,Cc1nn2c(=O)cc(COC(=O)c3ccc(S(=O)(=O)N4CCCCC4)cc3)nc2s1,9.39
15,O=C1c2ccccc2C(=O)N1Cc1ccc2c(c1)OCO2,12.2
16,CC(Oc1cccc(Cl)c1)C(=O)Nc1ccccc1C(=O)N1CCCCC1 (stereo not shown),7.7
17,CC(=O)Nc1ccc(S(=O)(=O)Nc2nnc(C(C)C)s2)cc1,15
18,COc1ccc(NC(=O)/C(C#N)=C/c2ccc(OCc3ccccc3F)cc2)cc1,8.4
19,CN(C)c1cccc(C(=O)NCC2CCCO2)c1 (stereo not shown),10.6
20,COc1ccc(N2CCN(C(=O)c3oc4ccccc4c3NC(=O)Cc3cccc(OC)c3)CC2)cc1,3.16
21,Cc1cc(C)c(C#N)c(SCC(=O)Nc2ccccc2C)n1,14
22,O=C(CSc1ccc(-c2ccccc2)nn1)NCC1CCCO1 (stereo not shown),9.52
23,COC(=O)c1ccc(N2CCN(C)CC2)c(NC(=O)COc2cccc(C)c2)c1,-3.12
24,Cc1cc(S(N)(=O)=O)ccc1N=Cc1c(O)n(-c2ccccc2)c(=O)[nH]c1=O,1.58
25,Cc1ccc(O)c(C(=O)c2cc(C#N)c(=O)n(CC3CCCO3)c2)c1 (stereo not shown),2.92
